{"source": "the supplement of paper PMC11417369", "note": "± gives the standard deviation of the averaged measurements. This is one part of the list.", "data": [{"test_system": "PfAP2-G AP2 domain (GST-tagged)", "test": "gcPBM binding intensity (ln(normalized median fluorescence intensity)); higher = stronger DNA binding", "summary_of_the_method": "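Using an Agilent 4 × 180k array, primer-extended double-stranded 36-bp intergenic genomic probes and negative controls were exposed for 1 h to GST-fused P. falciparum DNA-binding domains expressed in E. coli. Binding was carried out in 1× PBS with 1% milk, 0.2 mg/ml BSA, 0.5% salmon testes DNA and 0.03% Triton X-100, and protein was detected with Alexa488 anti-GST antibody and a 488 nm scan. Binding intensity is the highest Masliner-normalised natural-log median intensity across replicate spots of either probe orientation.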", "values": [{"sequence": "TCACATACATTACTTACACACCATATTAAGATATAC [CACACA_site4415]", "gcPBM binding intensity (ln)": "10.2 ± 0.2"}, {"sequence": "TTTTGTATATATTATTGTACTTTTAATATAGATCGT [XGTACX_site5830]", "gcPBM binding intensity (ln)": "11.3 ± 0.86"}, {"sequence": "AAATAAATATATAATACACACAAAAATATAAAATGT [CACACA_site3711]", "gcPBM binding intensity (ln)": "10.2 ± 0.18"}, {"sequence": "TTATACTCACGTTACACACACACAATATATATATAT [CACACA_site4137]", "gcPBM binding intensity (ln)": "10.4 ± 0.36"}, {"sequence": "TTTTTTACAACACGAAAATGAACAATTATAATAAAT [TGCATGCA_negctrl_site301]", "gcPBM binding intensity (ln)": "10.1 ± 0.19"}, {"sequence": "AAAATTCTTATAAGATGTACAATTTGTAACACTATA [XGTACX_site510]", "gcPBM binding intensity (ln)": "11 ± 0.55"}, {"sequence": "AAATATTATTCTTTTATTTTTAAACATATAATTATA [GTGCAC_negctrl_site136]", "gcPBM binding intensity (ln)": "9.79 ± 0.042"}, {"sequence": "AGTAAAAAAAATATCTGTACATATTAATATAAATGT [XGTACX_site6234]", "gcPBM binding intensity (ln)": "11.1 ± 0.54"}, {"sequence": "TTTTATAATCATAATAGTACTTTTTCTTTTTCACAT [XGTACX_site5017]", "gcPBM binding intensity (ln)": "11.1 ± 0.58"}, {"sequence": "TTATACACTGATAAAAGTACATTTGTATGTTTTTTT [XGTACX_site8959]", "gcPBM binding intensity (ln)": "11.1 ± 0.68"}, {"sequence": "ATCTAAAAATTTTACGCACACAAGTAAAAAAAAAAA [CACACA_site2485]", "gcPBM binding intensity (ln)": "10.5 ± 0.45"}, {"sequence": "GTTGAAAAAAAAAATGCACACGCATACATATAATAT [CACACA_site8117]", "gcPBM binding intensity (ln)": "10.12 ± 0.042"}, {"sequence": "ATTTCTTTGCTTTTCAAACACACAAAAGTTATTATA [CACACA_site520]", "gcPBM binding intensity (ln)": "10.1 ± 0.21"}, {"sequence": "TATATATATATAATTACACACAATGTTCTATATATA [CACACA_site3235]", "gcPBM binding intensity (ln)": "9.95 ± 0.43"}, {"sequence": "TATTTATTTAATTACACACGAACATATAACCATTTC [CACACA_site211]", "gcPBM binding intensity (ln)": "10.2 ± 0.13"}, {"sequence": "TGTAGACTACATAGTAGTACATAATATATACATATA [XGTACX_site367]", "gcPBM binding intensity (ln)": "11.3 ± 0.79"}, {"sequence": "TTTTCTTTTAAACATATATATATATATATATATATA [XGTACX_negctrl_site559]", "gcPBM binding intensity (ln)": "9.96 ± 1.1"}, {"sequence": "AAAAAAAAAAAAAAAACACACATATATATTATTGTA [CACACA_site3979]", "gcPBM binding intensity (ln)": "10.2 ± 0.23"}, {"sequence": "TTTTTTGTATTTTTCACACACTCTCTATCTCTCTCA [CACACA_site2095]", "gcPBM binding intensity (ln)": "9.94 ± 0.085"}, {"sequence": "GAATATTACATGTATTGTACAGGTAATGTTAAAAAT [XGTACX_site8274]", "gcPBM binding intensity (ln)": "10.9 ± 0.66"}, {"sequence": "ATTTATATTAAAAGTGTGCACTTTTTTTTTTTTTTT", "gcPBM binding intensity (ln)": "10.7 ± 0.44"}, {"sequence": "TAACATAAATCCATACGTACCTATATATATATAATA [XGTACX_site2626]", "gcPBM binding intensity (ln)": "10.8 ± 0.53"}, {"sequence": "TTTTTTTTTTTGTTTTGTACATAAATTGCAACCAAT [XGTACX_site8949]", "gcPBM binding intensity (ln)": "11.1 ± 0.86"}, {"sequence": "ATATATATATATATATGTACATATTCACTTATATTT [XGTACX_site5324]", "gcPBM binding intensity (ln)": "11.2 ± 0.63"}, {"sequence": "TCATTCCATACTTTAACACACAAATATATTTAATCC [CACACA_site145]", "gcPBM binding intensity (ln)": "10.2 ± 0.18"}, {"sequence": "TGTATTAATTTGTAATGTACACATATATGTATTATA [XGTACX_site4152]", "gcPBM binding intensity (ln)": "11.4 ± 0.9"}, {"sequence": "GGTATAATTCATATAACACACATTTCAATGTTAAAA [CACACA_site2172]", "gcPBM binding intensity (ln)": "10 ± 0.29"}, {"sequence": "CTTATATATACATATACACACACACCCATATATATA [CACACA_site8705]", "gcPBM binding intensity (ln)": "10.2 ± 0.2"}, {"sequence": "TAAGTAAACTTTCTATGTACATATTTTCAAATATTA [XGTACX_site6260]", "gcPBM binding intensity (ln)": "11.2 ± 0.61"}, {"sequence": "TTAACAAAATTTTTAACACACAAAAAAAAAAAAAAA [CACACA_site1828]", "gcPBM binding intensity (ln)": "9.73 ± 0.54"}, {"sequence": "ATGTAGACAACATATGAACACACAAAATATTTTTTT [CACACA_site8955]", "gcPBM binding intensity (ln)": "10.12 ± 0.064"}, {"sequence": "GATAAATAATAATAAGGTACACATAAAATATTCCTT [XGTACX_site2963]", "gcPBM binding intensity (ln)": "11.2 ± 0.69"}, {"sequence": "CCAAAATTTATAAATTGTACATATTTTTAAATTCTT [XGTACX_site833]", "gcPBM binding intensity (ln)": "11 ± 0.59"}, {"sequence": "ATAAAAGAATTAAATAATCAAAATGATTATTTTATA [CACACA_negctrl_site466]", "gcPBM binding intensity (ln)": "9.32 ± 0.16"}, {"sequence": "AATACATACGGACACACACACACATATATATATATA [CACACA_site5884]", "gcPBM binding intensity (ln)": "11.3 ± 0.81"}, {"sequence": "TGTTTAAAAATAATTTGTACATATATTTTATTTCAT [XGTACX_site1272]", "gcPBM binding intensity (ln)": "11 ± 0.61"}, {"sequence": "ATAAAGAAATAAAGTTGTACATTATATATATATATA [XGTACX_site7729]", "gcPBM binding intensity (ln)": "11.1 ± 0.76"}, {"sequence": "AATAATTTTTTAAACACACACACATATATATATATA [CACACA_site95]", "gcPBM binding intensity (ln)": "10.1 ± 0.23"}, {"sequence": "ATTCATTATTCACCTTGTACACAAATGATTATCGTA [XGTACX_site455]", "gcPBM binding intensity (ln)": "11.3 ± 0.76"}, {"sequence": "TCTTTTGTTTAACCTACATGCAGAATATAAGTCTTC [TGCATGCA_site99]", "gcPBM binding intensity (ln)": "10 ± 0.2"}, {"sequence": "TGACCTTATGTGTTTTGAAGGGGAAAGGAAATGCGC [XGTACX_negctrl_site411]", "gcPBM binding intensity (ln)": "10 ± 0.13"}, {"sequence": "TTTGTTCTTTTAATGTGTACATATACACTTGTAATA [XGTACX_site2635]", "gcPBM binding intensity (ln)": "11.3 ± 0.78"}, {"sequence": "ATGTATGCAAAAATGGTGCATATTAAATGTATAACA [GTGCAC_site9722]", "gcPBM binding intensity (ln)": "10.2 ± 0.17"}, {"sequence": "AAAAAAAAAAGAAACACACACATTTGTCTATAATAT [CACACA_site7063]", "gcPBM binding intensity (ln)": "10.04 ± 0.049"}]}]}
